# “And” between values parts separate entries of the source, which are not always exact repeats. Equal entries are not always repeated. This is one part of the list. Shown are side measurements of this screen, not its main read-out; they come without a call.
# Tests used:
# Test in all cases: Primary Screen for Target Class Profiling of Small Molecule Inhibitors of Methyltransferases
# [1] = target: Glycine N-methyltransferase (Homo sapiens) (UniProt Q14749); settings: purified enzyme, MTase-Glo SAH luminescence; measured here: GNMT inhibition; at 40 µM; stronger effect = lower value
# Summary of the method: (§1)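 Each enzyme was reacted with SAM and its substrate, with compounds tested once at 40 uM; SAH formed was read by MTase-Glo luminescence.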
# [2] = target: Guanidinoacetate N-methyltransferase (Homo sapiens) (UniProt Q14353); settings: purified enzyme, MTase-Glo SAH luminescence; measured here: GAMT inhibition; at 40 µM; stronger effect = lower value
# Summary of the method: as §1
# [3] = target: Histamine N-methyltransferase (Homo sapiens) (UniProt P50135); settings: purified enzyme, MTase-Glo SAH luminescence; measured here: HNMT inhibition; at 40 µM; stronger effect = lower value
# Summary of the method: as §1
# [4] = target: Nicotinamide N-methyltransferase (Homo sapiens) (UniProt P40261); settings: purified enzyme, MTase-Glo SAH luminescence; measured here: NNMT inhibition; at 40 µM; stronger effect = lower value
# Summary of the method: as §1
# [5] = target: Phenylethanolamine N-methyltransferase (Homo sapiens) (UniProt P11086); settings: purified enzyme, MTase-Glo SAH luminescence; measured here: PNMT inhibition; at 40 µM; stronger effect = lower value
# Summary of the method: as §1
# % is scaled to controls: 0 for no effect and ±100 for the full control effect.
Compound,"activity change, negative = inhibition [1]","activity change, negative = inhibition [2]","activity change, negative = inhibition [3]","activity change, negative = inhibition [4]","activity change, negative = inhibition [5]"
CCOC(=O)c1cc2n(n1)CC(C)(C(=O)NC1CCC(C)CC1)N(c1cccc(OC)c1)C2=O (stereo not given),3.54%,0%,3.83%,5.75%,0.328%
Cn1cccc1C(=O)NC1CCN(C(=O)N2CC3CC(C2)[C@H]2CCCC(=O)N2C3)CC1 (stereo not given in full),-4.62%,-3.87%,-0.743%,-5.91%,14.1%
CCC(C)NC(=O)c1ccc2c(=O)n(C)c3nn(CC(=O)c4ccc(C)cc4C)c(=O)n3c2c1 (stereo not given),3.36%,0.813%,6.42%,-2.31%,2.04%
CC1(C(=O)NC2CCCC2)Cn2c(c(-n3cccc3)c3ccccc32)C(=O)N1Cc1ccco1 (stereo not given),3.91%,0%,-2.31%,-5.06%,1.77%
CC(C)C1c2cccn2CCN1C(=O)Nc1ccc(Br)cc1F (stereo not given),1.1%,6.15%,-8.26%,-5.72%,-0.371%
CC(C)C1C(OC(=O)/C=C/c2ccccc2)CC2(C)OC2CCC2(C)OC2C1O (stereo not given),0%,4.07%,3.85%,-10.4%,3.25%
C=C(C(=O)OC)C1CCC2(C)C(O[C@@H]3O[C@H](CO)[C@@H](O)[C@H](O)[C@H]3O)CC(=O)C(C)C2C1O (stereo not given in full),0%,4.93%,9.92%,-6.29%,-0.782%
C=CCc1ccc(O[C@@H]2O[C@H](CO)[C@@H](O)[C@H](O)[C@H]2O)c(OC)c1,5.26%,3.79%,13%,-6.62%,5.96%
CS(=O)(=O)NC1CCN(c2cc(C3CC(N)C3)nc(N)n2)CC1 (stereo not given),-5.9%,-7.45%,-6.79%,-10.4%,-16.4%
C=CCc1cccc(C=NNC(=O)CN2CCN(Cc3ccccc3)CC2)c1O,-1.88%,3.77%,-10.7%,-12.9%,-2.44%
CN(CC(=O)N1CCOCC1)S(=O)(=O)c1ccc2c(c1)CCCC(=O)N2,9.52%,0.728%,9.61%,11.1%,9.44%
Cn1ccc2cc3c(cc21)CCN3C(=O)Nc1cccnc1,-52.6%,-2.72%,-7.28%,-17.6%,-23.1%
COC(=O)c1cc2n(n1)CC(C)(C(=O)NC1CCCCC1)N(c1cccc(SC)c1)C2=O (stereo not given),-0.414%,8.49%,0.991%,0.266%,0.743%
Cc1ccc(Cn2c(=O)c3ccccc3n3c(CCC(=O)NCCc4ccccc4)nnc23)cc1,-13.1%,5.08%,1.59%,-15.8%,-3.11%
CC1(C)CC2C(C1)C1(C)CCC13OC3(CO)C2O (stereo not given),4.65%,0.476%,9.83%,-13%,3.38%
C[C@@H]1O[C@@H](OC[C@H]2O[C@@H](OCc3ccccc3)[C@H](O)[C@@H](O)[C@@H]2O)[C@H](O)[C@H](O)[C@H]1O,1.53%,-3.43%,7.6%,-12.5%,-1.27%
O=C(O)CP(=O)(O)O,2.58%,6.73%,2.61%,-7.38%,-2.76%
COc1ccccc1CCC(=O)N1CC(F)(F)C[C@H]1c1nnc(C)o1,-2.62%,-0.082%,1.48%,-8.39%,-11.2%
Cc1noc(-c2cccn3c(CNC(=O)c4ccccc4C)nnc23)n1,-3.32%,1.9%,1.27%,2.67%,2.37%
CCCCN1C(=O)c2ccccc2C(C(=O)Nc2nncs2)C12CCCC2 (stereo not given),-2.99%,-2.54%,-8.9%,-10.6%,-5.5%
O=C(Nc1ccc(F)cc1)N[C@H]1[C@H](O)[C@@H](N2CCCC2)[C@@H]2OC[C@H]1O2,-0.976%,1.64%,1.52%,-4.72%,7.5%
Cc1ccccc1CSc1nnc2n(CCC(C)C)c(=O)c3ccccc3n12,-5.81%,3.98%,1.71%,-13.1%,-3.17%
CC1CCCC(NC(=O)Cn2c(=O)oc3cc(S(=O)(=O)N4CCCC4)ccc32)C1C (stereo not given),-6.04%,0.665%,-4.09%,-0.46%,-10.6%
Cc1cccc(CCNC(=O)Cn2c(=O)oc3cc(S(=O)(=O)NCc4ccccc4)ccc32)c1,3.93%,0%,0.365%,-5.91%,3.21%
Cc1nc(CN2C(=O)OC3(CCN(C(=O)Cc4ccc(O)cc4)CC3)C2(C)c2ccccc2)cs1 (stereo not given),-5.34%,-6.47%,-6.67%,-4.3%,-2.39%
Cc1ccc(C(=O)N2CCCC(n3c(C)cnc3C3CCOCC3)C2)s1 (stereo not given),-3.71%,-8.26%,-4.89%,-10.4%,-2.37%
Cc1cnc(-c2ccncc2)n1C1CCN(S(=O)(=O)c2cccc(F)c2)CC1,-4.12% and -8.6%,-4.23% and 3.81%,-0.942% and -8.15%,-8.86% and -9.18%,-19.6% and -3.95%
Cc1noc(C)c1[S+](=O)([O-])N1CC(Oc2ccc(F)cc2F)C1,-6.95%,-2.97%,-2.99%,-8.67%,-1.12%
Cc1ccc(Cn2c(=O)c3ccccc3n3c(SCC(=O)Nc4ccc(C)cc4C)nnc23)cc1,2.4%,0%,9.75%,1.99%,2.88%
COc1ccc(NC(=O)CCc2nnc3n(CCCOC(C)C)c(=O)c4ccccc4n23)cc1,-3.22%,-5.52%,-5.47%,-0.295%,-12.7%

# Source: PubChem BioAssay AID1745853 (National Center for Advancing Translational Sciences (NCATS), 2022)
